# Results from PubChem BioAssay (Tox21).
# Inconclusive means that the source gave no clear call. Such entries were picked first, then a sample of the others. For part of these data: Potencies of inconclusive entries are doubtful fits and often do not repeat. Activity calls are given as the source filed them. Unless noted, the call rests on the fitted dose curve; in most records, active means well fitted curve in the direction sought with a large enough effect in the repeat runs; inconclusive means weak or mixed curves; inactive means no such curve, though single readings can be large; an effect the other way counts as inactive or inconclusive.
# What was measured:
# [1] = qHTS assay to identify small molecule antagonists of the estrogen related receptor (ERR) signaling pathway - cell viability counter screen (AID 1224818); further: potency means the concentration at half of the fitted maximal effect
# Summary of the method: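 Viability of ERR cells, CellTiter-Fluor fluorescence; 17.5 h compound exposure at 37 C, DMSO vehicle; 30 min reagent incubation at 37 C/5% CO2.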
# [2] = qHTS assay to identify small molecule antagonists of the estrogen related receptor (ERR) signaling pathway (AID 1224819; further: nearly all actives have a fitted effect of over 50% in size; further: potency means the concentration at half of the fitted maximal effect)
# Summary of the method: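 Seed ERR cells 2,000/well; rest 6 h at 37 C/5% CO2; pin compounds in DMSO; incubate 18 h at 37 C; add One-Glo; wait 30 min at room temperature; measure luminescence.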
# [3] = tested on: estrogen-related receptor alpha (ERRalpha) with PGC-1alpha coactivator, human; test: qHTS assay to identify small molecule antagonists of the estrogen related receptor signaling pathway with the pleiotropic PPARgamma coactivator (PGC) (AID 1224821; calls by dose curve; further: potency means the concentration at half of the fitted maximal effect; nearly all actives have a fitted effect of over 50% in size)
# Summary of the method: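 A PGC/ERR cell line supplied by NTP is seeded, allowed 6 h at 37 C, and treated with test compounds in DMSO for 18 h. Signal is then measured as luciferase luminescence using One-Glo.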
# [4] = qHTS assay to identify small molecule antagonists of the estrogen related receptor signaling pathway with the pleiotropic PPARgamma coactivator (PGC) cell viability counter screen (AID 1224822; further: potency means the concentration at half of the fitted maximal effect)
# Summary of the method: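 17.5 h compound treatment of PGC/ERR cells at 37 C; readout CellTiter-Fluor fluorescence; run alongside the PGC/ERR antagonist screen to flag cytotoxic compounds.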
# [5] = qHTS assay to identify small molecule antagonists of the glucocorticoid receptor (GR) signaling pathway - cell viability counter screen (AID 720693); conditions: GR-bla HeLa viability, CellTiter-Glo luminescence, 18 h, with 5 nM dexamethasone present; viability change, negative = cytotoxic: at 58.5 µM (top of the series); further: on the % scale 0 is the no-effect control and ±100 the full control effect; nearly all actives have a fitted effect of over 55% in size
# [6] = qHTS assay to identify small molecule antagonists of the thyroid receptor (TR) signaling pathway (AID 743065); further: potency means the concentration at half of the fitted maximal effect; nearly all actives have a fitted effect of over 55% in size
# Summary of the method: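 Antagonism measured as loss of luciferase signal in GH3 cells stably carrying a TRE-luciferase reporter, co-treated with compound and T3 (1 nM final) for 23.5 h at 37 C. Viability was read in the same well by CellTiter-Fluor.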
# [7] = qHTS assay to identify small molecule antagonists of the estrogen receptor alpha (ER-alpha) signaling pathway using the BG1 cell line - cell viability counter screen (AID 743081); conditions: BG1Luc4E2 viability, CellTiter-Fluor, 22 h; activity change, negative = cytotoxicity: at 70.3 µM (top of the series) unless noted;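 further: compound given together with 17beta-estradiol as the ER stimulus; potency means the concentration at half of the fitted maximal effect; nearly all actives have a fitted effect of over 45% in size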
# [8] = qHTS assay to identify small molecule that activate the aryl hydrocarbon receptor (AhR) signaling pathway - cell viability counter screen (AID 743086); further: potency means the concentration at half of the fitted maximal effect; nearly all actives have a fitted effect of over 45% in size
# Summary of the method: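 Cytotoxicity counter screen: CellTiter-Fluor signal (30 min, 37 C) in 4000 HepG2 cells/well carrying the DRE-luciferase reporter, following 24 h compound exposure at 37 C.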
# [9] = qHTS assay to identify small molecule agonists of the estrogen related receptor (ERR) signaling pathway (AID 1224820); further: on the % scale 0 is the no-effect control and ±100 the full control effect
# Summary of the method: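 An ERR cell line provided by NTP was seeded at 2,000 cells per well and allowed to settle for 6 h before compounds in DMSO were added. After 18 h at 37 C, luciferase activity was measured by One-Glo luminescence.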
# [10] = molecular target: Nuclear receptor subfamily 1 group I member 2 (Homo sapiens) (UniProt O75469); test: Human pregnane X receptor (PXR) activation by small molecules, qHTS assay (AID 1346985); further: potency means the concentration at half of the fitted maximal effect; nearly all actives have a fitted effect of over 40% in size
# Summary of the method: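 DPX-2 cells (HepG2 co-transfected with a PXR response element and a CYP3A4-promoter luciferase construct) were seeded at 2,000 per well, rested 5 hr at 37C, then exposed to DMSO-dissolved compounds for 24 hr. Activation was read as luciferase luminescence.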
# [11] = molecular target: Peroxisome proliferator-activated receptor gamma (Homo sapiens) (UniProt P37231); test: qHTS assay to identify small molecule antagonists of the peroxisome proliferator-activated receptor gamma (PPARg) signaling pathway (AID 743191; calls by dose curve; further: on the % scale 0 is the no-effect control and ±100 the full control effect; nearly all actives have a fitted effect of over 30% in size); conditions: HEK293H PPARg-UAS-bla, beta-lactamase ratio, antagonist, 17 h; ratio activity, negative = inhibition: at 62.6 µM (top of the series) unless noted
# Summary of the method: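 Beta-lactamase reporter under UAS control in HEK293H PPARg-bla cells; compound treatment 17 h at 37C. Read-out: fluorescence intensity after 1 h room-temperature incubation with LiveBLAzer B/G FRET substrate.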
# [12] = molecular target: Bile acid receptor (Homo sapiens) (UniProt Q96RI1); test: qHTS assay to identify small molecule antagonists of the farnesoid-X-receptor (FXR) signaling pathway (AID 743217; active means well fitted inhibition curve with a large enough effect in the signal ratio in the repeat runs, not every such curve was filed as active; inconclusive means weak or mixed curves, or effect the other way; inactive means no such curve, though single readings can be large or run the other way; the % refers to the signal ratio; further: on the % scale 0 is the no-effect control and ±100 the full control effect); conditions: HEK293T FXR-UAS-bla, beta-lactamase ratio, CDCA-stimulated, 16 h; activity change, negative = inhibition: at 62.6 µM (top of the series) unless noted
# Summary of the method: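 Test compounds are pin-transferred onto FXR-bla HEK 293T cells, then chenodeoxycholic acid is added at 50 uM final. After 16 h at 37 °C, LiveBLAzer B/G substrate is applied for 2 h at room temperature and fluorescence read.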
# [13] = molecular target: Bile acid receptor (Homo sapiens) (UniProt Q96RI1); test: qHTS assay to identify small molecule agonists of the farnesoid-X-receptor (FXR) signaling pathway (AID 743220; active means well fitted activation curve with a large enough effect in the signal ratio in the repeat runs, not every such curve was filed as active; inconclusive means weak or mixed curves, or effect the other way; the % refers to the signal ratio; further: on the % scale 0 is the no-effect control and ±100 the full control effect); conditions: HEK293T FXR-UAS-bla, beta-lactamase FRET ratio, 16 h; activation: at 62.6 µM (top of the series) unless noted
# Summary of the method: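 FXR-UAS-bla HEK 293T cells carrying a UAS-driven beta-lactamase reporter were plated for 5 h at 37C/5% CO2, then exposed to DMSO-dissolved Tox21 10K compounds for 16 h at 37C. A LiveBLAzer B/G FRET substrate was loaded for 2 h at room temperature before fluorescence reading.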
# [14] = molecular target: Vitamin D3 receptor (Homo sapiens) (UniProt P11473); test: qHTS assay to identify small molecule agonists of the vitamin D receptor (VDR) signaling pathway (AID 743222; calls by dose curve; further: on the % scale 0 is the no-effect control and ±100 the full control effect); conditions: HEK293T VDR-UAS-bla, beta-lactamase FRET ratio, 16 h; activation: at 63.5 µM (top of the series) unless noted
# Summary of the method: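 Tox21 cell reporter format: VDR-bla line, 16 h compound exposure in 5% CO2 at 37C, then fluorescence intensity after 2 h with LiveBLAzer B/G FRET substrate.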
# [15] = qHTS assay to identify small molecule agonists of the retinoic acid receptor (RAR) signaling pathway (AID 1159553); conditions: C3RL4 RARE luciferase reporter, agonist, 6 h; activation: at 73.3 µM (top of the series) unless noted; further: on the % scale 0 is the no-effect control and ±100 the full control effect
# Summary of the method: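 In this cell-based screen, 1,000 C3RL4 cells per well were cultured overnight, dosed with test chemicals in DMSO for 6 hr, and assessed for RARE luciferase luminescence.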
# [16] = molecular target: Estrogen receptor beta (Homo sapiens) (UniProt Q92731); test: qHTS assay to identify small molecule agonists of the estrogen receptor beta (ER-beta) signaling pathway (AID 1259377; active means well fitted activation curve with a large enough effect in the signal ratio in the repeat runs, not every such curve was filed as active; inconclusive means weak or mixed curves, or effect the other way; the % refers to the signal ratio; further: on the % scale 0 is the no-effect control and ±100 the full control effect); conditions: ER-beta-UAS-bla HEK293T, beta-lactamase FRET ratio, 16 h; activation: at 92.4 µM (top of the series) unless noted
# Summary of the method: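 ER-beta-UAS-bla HEK293T cells in medium with 2% charcoal-stripped FBS were exposed to compounds for 16 h at 37C. Beta-lactamase reporter activity was read as fluorescence after 2 h with LiveBLAzer B/G FRET substrate at room temperature.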
# [17] = qHTS assay to identify small molecule agonists of the estrogen receptor beta (ER-beta) signaling pathway - cell viability counter screen (AID 1259380); further: potency means the concentration at half of the fitted maximal effect; nearly all actives have a fitted effect of over 30% in size
# Summary of the method: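 Compounds dissolved in DMSO were pin-transferred onto ER-beta-UAS-bla HEK293T cells that had settled 6 hr, and exposure ran 16 hr at 37C. Following the reporter read, CellTiter-Glo luminescence after 30 min at room temperature indicated cytotoxicity.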
# [18] = qHTS assay to identify small molecule antagonists of the estrogen receptor beta (ER-beta) signaling pathway - cell viability counter screen (AID 1259382);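 further: HEK293T cells carrying ER-beta-UAS-bla reporter stimulated with estradiol; on the % scale 0 is the no-effect control and ±100 the full control effect; nearly all actives have a fitted effect of over 55% in size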
# Summary of the method: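 CellTiter-Glo ATP luminescence measured after the LiveBLAzer read in the same wells; ER-beta-UAS-bla HEK293T cells, 16 hr compound treatment with 1nM 17-beta-estradiol agonist at 37C, 5% CO2.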
# [19] = molecular target: Progesterone receptor (Homo sapiens) (UniProt P06401); test: qHTS assay to identify small molecule antagonists of the progesterone receptor (PR) signaling pathway (AID 1346795; active means well fitted inhibition curve with a large enough effect in the signal ratio in the repeat runs, not every such curve was filed as active; inconclusive means weak or mixed curves; the % refers to the signal ratio; further: on the % scale 0 is the no-effect control and ±100 the full control effect); conditions: PR-UAS-bla HEK293T, beta-lactamase FRET ratio, 16 h; activity change, negative = inhibition: at 92.4 µM (top of the series) unless noted
# Summary of the method: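 PR-UAS-bla HEK293T cells with beta-lactamase reporter under UAS control, in 2% charcoal-stripped FBS, treated with compounds plus 1 nM promegestone (R5020, final) for 16 hr at 37C. Read-out: FRET beta-lactamase substrate fluorescence after 2 hr at room temperature.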
# [20] = qHTS assay to identify small molecule agonists of the progesterone receptor (PR) signaling pathway - cell viability counter screen (AID 1346799; calls by dose curve; further: on the % scale 0 is the no-effect control and ±100 the full control effect; nearly all actives have a fitted effect of over 45% in size)
# Summary of the method: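 Counter screen in the PR-UAS-bla HEK293T wells (2% charcoal-stripped FBS, 16 h compound exposure at 37 C) after the bla read. CellTiter-Glo added, 30 min at room temperature, luminescence read as cell viability.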
# [21] = Caspase-3/7 induction in HepG2 cells by small molecules, qHTS cell viability counter screen (AID 1346981); further: on the % scale 0 is the no-effect control and ±100 the full control effect; nearly all actives have a fitted effect of over 30% in size
# Summary of the method: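 After a 5-hr attachment period at 37 C and 5% CO2, wild-type HepG2 cells received compounds in DMSO. Sixteen hours later CellTiter-Fluor was dispensed and the fluorescent signal quantified after a further hour.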
# [22] = molecular target: Cytochrome P450 2C9 (Homo sapiens) (UniProt P11712); test: Cytochrome P450 Family 2 Subfamily C Member 9 (CYP2C9) small molecule antagonists: luciferase reporter qHTS assay (AID 1671198); further: potency means the concentration at half of the fitted maximal effect; nearly all actives have a fitted effect of over 50% in size
# Summary of the method: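 Enzyme-substrate mix preincubated with compound 10 min at room temperature; reaction started with NADPH regeneration solution, 1 h 37C. Luminescent luciferin product read after 20 min detection reagent.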
# Tags describe the fitted curve by direction and shape.
# UniProt Q96RI1, sequence (Q96RI1 whole entry, looked up): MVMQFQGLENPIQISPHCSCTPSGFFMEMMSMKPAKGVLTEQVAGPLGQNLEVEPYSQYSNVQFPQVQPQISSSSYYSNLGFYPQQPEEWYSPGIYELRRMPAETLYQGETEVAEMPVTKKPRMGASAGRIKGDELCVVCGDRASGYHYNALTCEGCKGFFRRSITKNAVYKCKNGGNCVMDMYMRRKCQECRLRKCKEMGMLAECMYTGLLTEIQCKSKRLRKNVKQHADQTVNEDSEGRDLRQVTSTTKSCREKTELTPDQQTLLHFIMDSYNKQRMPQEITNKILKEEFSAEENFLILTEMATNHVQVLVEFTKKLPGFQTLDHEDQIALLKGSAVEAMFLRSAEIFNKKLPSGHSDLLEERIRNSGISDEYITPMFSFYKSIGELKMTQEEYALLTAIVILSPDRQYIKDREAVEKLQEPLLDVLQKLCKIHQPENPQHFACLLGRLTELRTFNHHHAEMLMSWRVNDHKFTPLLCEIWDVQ
# UniProt P37231, sequence (P37231 whole entry, looked up): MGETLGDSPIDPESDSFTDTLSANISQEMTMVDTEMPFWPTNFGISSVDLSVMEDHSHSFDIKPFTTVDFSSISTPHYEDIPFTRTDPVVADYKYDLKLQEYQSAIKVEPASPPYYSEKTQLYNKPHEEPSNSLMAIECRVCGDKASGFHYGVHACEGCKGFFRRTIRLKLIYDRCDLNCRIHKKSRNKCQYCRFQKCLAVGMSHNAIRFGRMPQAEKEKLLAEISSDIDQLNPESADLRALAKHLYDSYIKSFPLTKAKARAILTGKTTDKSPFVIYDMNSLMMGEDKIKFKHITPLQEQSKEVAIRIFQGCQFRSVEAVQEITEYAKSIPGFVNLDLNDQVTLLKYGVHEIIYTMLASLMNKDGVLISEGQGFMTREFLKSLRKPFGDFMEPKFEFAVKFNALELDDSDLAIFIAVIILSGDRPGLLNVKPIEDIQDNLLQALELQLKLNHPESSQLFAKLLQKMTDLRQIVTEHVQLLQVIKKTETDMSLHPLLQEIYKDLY
# UniProt Q92731, sequence (Q92731 whole entry, looked up): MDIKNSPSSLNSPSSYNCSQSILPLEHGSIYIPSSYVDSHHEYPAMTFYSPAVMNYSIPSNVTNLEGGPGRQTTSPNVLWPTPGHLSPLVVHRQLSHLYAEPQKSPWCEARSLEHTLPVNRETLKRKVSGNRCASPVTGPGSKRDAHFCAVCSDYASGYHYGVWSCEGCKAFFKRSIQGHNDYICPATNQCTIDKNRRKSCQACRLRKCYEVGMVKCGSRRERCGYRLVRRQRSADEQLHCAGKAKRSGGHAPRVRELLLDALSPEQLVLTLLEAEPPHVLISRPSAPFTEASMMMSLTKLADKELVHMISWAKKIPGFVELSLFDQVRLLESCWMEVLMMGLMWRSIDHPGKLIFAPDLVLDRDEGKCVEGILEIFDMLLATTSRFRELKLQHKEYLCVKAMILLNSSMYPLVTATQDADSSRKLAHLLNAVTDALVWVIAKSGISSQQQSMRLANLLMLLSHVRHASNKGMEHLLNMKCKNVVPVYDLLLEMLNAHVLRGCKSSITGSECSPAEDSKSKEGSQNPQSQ
# UniProt P06401, sequence (P06401 whole entry, looked up): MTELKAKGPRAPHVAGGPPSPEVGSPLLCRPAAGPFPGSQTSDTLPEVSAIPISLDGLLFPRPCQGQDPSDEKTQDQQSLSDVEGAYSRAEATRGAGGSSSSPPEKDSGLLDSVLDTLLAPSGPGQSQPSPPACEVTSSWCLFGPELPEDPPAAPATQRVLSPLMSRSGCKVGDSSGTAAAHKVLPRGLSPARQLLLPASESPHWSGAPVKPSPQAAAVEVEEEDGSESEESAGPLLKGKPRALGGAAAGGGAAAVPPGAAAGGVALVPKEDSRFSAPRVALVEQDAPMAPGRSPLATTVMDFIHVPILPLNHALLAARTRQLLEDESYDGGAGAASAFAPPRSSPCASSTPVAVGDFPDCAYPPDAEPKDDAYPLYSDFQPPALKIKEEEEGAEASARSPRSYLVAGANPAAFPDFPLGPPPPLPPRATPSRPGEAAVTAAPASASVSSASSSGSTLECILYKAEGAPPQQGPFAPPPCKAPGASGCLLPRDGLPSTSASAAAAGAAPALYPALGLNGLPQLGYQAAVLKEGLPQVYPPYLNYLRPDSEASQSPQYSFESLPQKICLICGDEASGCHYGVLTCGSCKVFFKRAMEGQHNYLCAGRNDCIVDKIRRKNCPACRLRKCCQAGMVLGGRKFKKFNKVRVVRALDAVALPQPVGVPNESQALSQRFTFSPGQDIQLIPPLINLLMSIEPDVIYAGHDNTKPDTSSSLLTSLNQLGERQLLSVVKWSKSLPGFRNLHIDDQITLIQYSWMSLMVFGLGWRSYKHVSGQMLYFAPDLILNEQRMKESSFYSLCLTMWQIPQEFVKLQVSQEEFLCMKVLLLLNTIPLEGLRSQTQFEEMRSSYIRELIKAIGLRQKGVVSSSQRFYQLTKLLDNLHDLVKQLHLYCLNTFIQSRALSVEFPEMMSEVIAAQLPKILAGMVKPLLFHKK
# UniProt P11473, sequence (P11473 whole entry, looked up): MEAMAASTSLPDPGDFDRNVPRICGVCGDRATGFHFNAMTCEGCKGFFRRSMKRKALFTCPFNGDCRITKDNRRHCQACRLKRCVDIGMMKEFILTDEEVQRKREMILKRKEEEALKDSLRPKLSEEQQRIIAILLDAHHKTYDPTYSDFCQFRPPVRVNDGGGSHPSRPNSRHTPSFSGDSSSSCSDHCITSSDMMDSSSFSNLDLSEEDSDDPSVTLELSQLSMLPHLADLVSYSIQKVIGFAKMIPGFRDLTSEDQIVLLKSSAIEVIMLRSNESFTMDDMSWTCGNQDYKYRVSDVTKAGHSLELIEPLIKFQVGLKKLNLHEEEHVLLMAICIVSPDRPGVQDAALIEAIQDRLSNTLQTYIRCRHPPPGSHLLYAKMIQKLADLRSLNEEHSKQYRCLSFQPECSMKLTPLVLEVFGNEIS
# UniProt P11712, sequence (P11712 whole entry, looked up): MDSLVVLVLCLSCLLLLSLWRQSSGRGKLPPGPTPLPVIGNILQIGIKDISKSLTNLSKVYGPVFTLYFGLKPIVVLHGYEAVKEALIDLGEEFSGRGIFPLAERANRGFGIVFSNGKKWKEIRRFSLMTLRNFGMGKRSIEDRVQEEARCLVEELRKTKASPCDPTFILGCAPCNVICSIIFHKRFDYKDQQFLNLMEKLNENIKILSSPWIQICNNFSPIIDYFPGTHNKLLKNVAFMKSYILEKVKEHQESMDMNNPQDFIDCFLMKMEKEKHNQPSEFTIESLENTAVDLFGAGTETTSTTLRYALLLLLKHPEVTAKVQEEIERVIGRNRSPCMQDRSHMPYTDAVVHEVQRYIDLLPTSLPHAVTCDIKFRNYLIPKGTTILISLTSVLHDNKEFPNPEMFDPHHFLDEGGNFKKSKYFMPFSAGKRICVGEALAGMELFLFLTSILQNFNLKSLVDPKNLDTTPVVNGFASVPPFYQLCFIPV
smiles,measurement,setting,value
Cc1ccccc1/C=C/C1=NCCN1,Potency,[1],inactive
same,Potency,[2],inconclusive: 26.6 µM [inhibitor]
same,Potency,[3],inconclusive: 28.2 µM [inhibitor]
same,Potency,[4],inconclusive: 28.7 µM [cytotoxic]
CC(=O)/C=C1\C(=O)N(C)c2ccccc21,Potency,[1],"inconclusive: 33.5 µM [cytotoxic, partial curve, poor fit]"
same,Potency,[2],inconclusive: 16.2 µM [inhibitor]
same,Potency,[3],active: 28.7 µM
same,Potency,[4],"inconclusive: 18.8 µM [cytotoxic, single point]"
CCN(CC)CC#CCOC(=O)C(O)(c1ccccc1)C1CCCCC1 (centres undefined),Potency,[5],inactive
same,Potency,[6],"inconclusive: 33.5 µM [inhibitor, single point]"
same,Potency,[7],active: 9.44 µM
same,Potency,[8],active: 18.8 µM
same,Potency,[1],inconclusive: 7.22 µM [cytotoxic]
same,Potency,[2],inconclusive: 24.6 µM [inhibitor]
same,Potency,[9],inactive
same,Potency,[3],inconclusive: 22.8 µM [inhibitor]
same,Potency,[4],inconclusive: 11.4 µM [cytotoxic]
same,Potency,[10],active: 17.8 µM
O=[N+]([O-])c1ccc(-c2nc(-c3ccc(F)cc3)c(-c3ccncc3)[nH]2)cc1,Potency,[1],inconclusive: 28.7 µM [cytotoxic]
same,Potency,[2],active: 13.3 µM
same,Potency,[3],inconclusive: 19.6 µM [inhibitor]
same,Potency,[4],inconclusive: 28.7 µM [cytotoxic]
CC(C)(C)c1ccc(S(=O)(=O)/C=C/C#N)cc1,Potency,[1],inconclusive: 24.6 µM [cytotoxic]
same,Potency,[2],inactive
same,Potency,[3],"inconclusive: 29.8 µM [inhibitor, single point]"
same,Potency,[4],inconclusive: 27.6 µM [cytotoxic]
CC(=O)N[C@@H](CO)C(=O)N[C@@H](CC(=O)O)C(=O)N[C@@H](CCCCN)C(=O)N1CCC[C@H]1C(=O)O,Potency,[11],inactive
same,Potency,[12],inactive
same,Potency,[13],inactive
same,Potency,[14],inactive
same,Potency,[15],inactive
same,activation,[16],inconclusive: 9.65% [at 42.5 µM]
same,Potency,[17],"inconclusive: 33.5 µM [rising, single point]"
same,Potency,[18],inactive
same,Potency,[19],inactive
same,Potency,[20],inactive
same,Potency,[21],inactive
same,Potency,[22],"inconclusive: 34.7 µM [inhibitor, partial curve, poor fit]"
COC1=C(OC)C(=O)c2ccccc2C1=O,Potency,[1],inconclusive: 20.3 µM [cytotoxic]
same,Potency,[2],active: 11 µM
same,Potency,[3],inconclusive: 26.6 µM [inhibitor]
same,Potency,[4],inconclusive: 29.8 µM [cytotoxic]
C[C@]12C=CC(=O)C=C1CC[C@@H]1C2=CC[C@]2(C)[C@@H](C(=O)CN3CCN(c4cc(N5CCCC5)nc(N5CCCC5)n4)CC3)CC[C@@H]12,Potency,[1],inactive
same,Potency,[2],inconclusive: 19.6 µM [inhibitor]
same,Potency,[3],inconclusive: 24.6 µM [inhibitor]
O=C1NC(=O)c2cc(Nc3ccccc3)c(Nc3ccccc3)cc21,Potency,[1],"inconclusive: 18.8 µM [cytotoxic, single point]"
same,Potency,[2],active: 10.2 µM
same,Potency,[3],active: 20.3 µM
same,Potency,[4],inconclusive: 16.8 µM [cytotoxic]
COc1ccccc1N1CCN(CCCCNC(=O)c2ccc3ccccc3c2)CC1,Potency,[1],inconclusive: 20.3 µM [cytotoxic]
same,Potency,[2],"inconclusive: 16.8 µM [inhibitor, partial curve]"
same,Potency,[9],inactive
same,Potency,[3],inconclusive: 21.1 µM [inhibitor]
same,Potency,[4],"inconclusive: 26.6 µM [cytotoxic, single point]"
O=C(CCCCCN1CCN(c2ccccc2-c2ccccc2)CC1)NC1CCCc2ccccc21 (centres undefined),Potency,[1],inconclusive: 27.6 µM [cytotoxic]
same,Potency,[2],inconclusive: 24.6 µM [inhibitor]
same,Potency,[3],inconclusive: 24.6 µM [inhibitor]
same,Potency,[4],inconclusive: 26.6 µM [cytotoxic]
COc1cc2nc(N3CCCN(C)CC3)nc(NC3CCN(Cc4ccccc4)CC3)c2cc1OC,Potency,[1],active: 24.6 µM
same,Potency,[2],inconclusive: 25.6 µM [inhibitor]
same,Potency,[3],active: 28.7 µM
same,Potency,[4],active: 10.6 µM
Cc1cc2c(cc1Cl)N(C(=O)Nc1ccc(Oc3cccnc3C)nc1)CC2,Potency,[1],inconclusive: 25.6 µM [cytotoxic]
same,Potency,[2],active: 5.11 µM
same,Potency,[4],inconclusive: 24.6 µM [cytotoxic]
CCN(c1nc(N)c(C(=O)N=C(N)N)nc1Cl)C(C)C,Potency,[1],"inconclusive: 23.7 µM [cytotoxic, single point]"
same,Potency,[2],active: 9.81 µM
same,Potency,[3],"inconclusive: 9.44 µM [inhibitor, partial curve, poor fit]"
same,Potency,[4],inconclusive: 27.6 µM [cytotoxic]
